# Data from ChEMBL document CHEMBL4888484, “Replenishing the malaria drug discovery pipeline: Screening and hit evaluation of the MMV Hit Generation Library 1 (HGL1) against asexual blood stage Plasmodium falciparum ,using a nano luciferase reporter read-out” (2022).
# About 540 (0.36%) of roughly 150,000 compounds showed an effect of 50% or more. Some of the results follow.
# Test system: Plasmodium falciparum
# Test: Primary screen in NF54 nanoGlo assay, in single point, at 2uM, 72h; a lower Z score goes with more inhibition
# Assay type: functional, Erythrocyte
# Settings: timepoint 72 hour
Compound,% Inhibition,Z score
Cc1nn(C)c(C)c1CCc1nc(-c2ccco2)nn1-c1ccncc1,-10%,1.32
COC(=O)c1ccc(N(Cc2nnc(C)n2C)S(C)(=O)=O)cc1,3%,-0.47
CCCC(=O)Nc1nn(C)cc1C(=O)OCC,-5%,0.82
C[C@@H](C(=O)c1ccccc1)N1C(=O)CCC1=O,-9%,1.47
CC(CC(=O)c1ccco1)NC(=O)C1CCCc2ccccc21 (stereo not drawn),1%,-0.09
CN(Cc1ccncc1)S(=O)(=O)CCCC(F)(F)F,-11%,0.97
CC[C@@H](CO)NC(=O)NC1CCCc2cnn(C(C)C)c21 (stereo partly drawn),-6%,0.69
CCn1nc(C(=O)NCCN2CCCC2)cc1-c1ccc(C(C)(C)C)cc1,-12%,1.47
COc1ccc(OC2CCN(C3CCCC3)CC2)c(C(=O)N(C)Cc2ccncc2C)c1,-3%,0.47
CN1CCN(C(=O)C2CC3CCCC(C2)C3=O)CC1 (stereo not drawn),-18%,2.12
CC[C@H]1C(=O)NCCCN1C(=O)c1cnn2ccncc12,-5%,0.49
O=C(CN1CC(=O)NC1=O)NCc1ccc(-n2cnc3ccccc32)cc1Cl,-11%,1.31
CCn1ncc(Cl)c1C(=O)N1CCC[C@H]1c1cccs1,3%,-0.61
O=C(CN1C(=O)c2ccccc2C1=O)OCCOc1cccc(Cl)c1,-5%,0.85
Cn1cccc1-c1noc(CNC(=O)c2cccnc2O)n1,-18%,2.29
OCCN1CCC[C@H](c2ccc(F)cc2)CC1,-14%,1.73
Cc1nccn1CCN(C1CCN(C(=O)CCC2CCCCC2)CC1)S(C)(=O)=O,-13%,1.77
O=C(CC[C@H]1CCCCO1)NCc1cccc(C(F)(F)F)n1,1%,-0.07
CCCS(=O)(=O)NCC1(CO)CC1,-15%,1.56
COc1cc(C)cc(C)c1S(=O)(=O)N(C)Cc1nnc[nH]1,37%,-5.31
O=C(Nc1cccc2ccccc12)N1CCCC[C@@H]1CCn1ccnc1,2%,-0.41
Cc1oc(C)c(C(=O)[C@H](C#N)c2ccccn2)c1C,3%,-0.46

Compound,% Inhibition,Z score
COc1ccc([C@H](CNCc2c(OC(F)F)ccc3ccccc23)N2CCOCC2)cc1,-13%,1.41
O=C(O)C1CCCN1C(=O)COCC1CCCO1 (stereo not drawn),-11%,1.27
O=C(NCC1(Cn2cccn2)CC1)c1csc2nc(-c3ccccc3)cn12,6%,-0.86
COC(=O)CC[C@H]1CCCCN1C(=O)c1[nH]cnc1C,-7%,1.26
COc1cccc(-c2noc(N3CCC(N4CCCCC4)CC3)n2)c1,-11%,1
COc1ccc(F)c(CN2CCC[C@@]3(CCN(C(=O)CCC(F)(F)F)C3)C2)c1,-2%,0.38
CCNc1ncc(C(=O)Nc2[nH]nc(C3CC3)c2C)s1,-4%,0.55
CC(C)c1n[nH]c([C@@H]2CN(Cc3cccc4cccnc34)CCO2)n1,0%,-0.05
CN(C)C[C@H]1C[C@H](CO)CN(C(=O)CCc2ccc(-c3ccccc3)cc2)C1,-9%,1.78
Cc1ncsc1C(=O)N[C@@H](C)Cn1cccn1,-11%,0.98
CCn1ncc(-c2nc(C(C)C3CCCO3)no2)n1 (stereo not drawn),-10%,1.82
O=C1NCCN(C(=O)c2ccccc2-c2nnn[nH]2)[C@H]1Cc1ccccc1,-18%,1.57
N#Cc1ccc(CN(CCC(F)(F)F)C2CCCC2)o1,1%,-0.17
O=C([C@@H]1CCCc2[nH]ncc21)N(CCO)CC(F)F,-4%,0.5
Cc1ccc(O[C@@H](C)CNC(=O)NCc2cccnc2)cc1,13%,-2.51
CCCS(=O)(=O)NCCc1ncc(C)n1C(C)C,1%,-0.15
COc1cccc2nnc(NC(=O)CCC(=O)NC3CCCCC3)n12,5%,-1.03
CC(C)c1noc(NC2CCN(S(=O)(=O)C(C)(C)C)CC2)n1,2%,-0.21
N#Cc1c(O)nc(N2CCOCC2)nc1-c1ccccc1,20%,-1.93
C[C@@H](Cc1cnccn1)NC(=O)c1coc(COc2ccccc2)n1,-24%,2.12
Cc1nc(C)c(S(=O)(=O)Nc2cnoc2C)s1,1%,-0.09
Cc1[nH]c2c(F)cc(F)cc2c1CCNC(=O)CCn1cncn1,-23%,2.29
